Results: PubChem BioAssay AID463173 (ICCB-Longwood Screening Facility, Harvard Medical School, 2010)
Among all 52,000 compounds or so, about 1,700 (3.3%) were called active. No stated cut-off is given here; in the data, active means survival mostly below about 52% (no sharp cut-off); inactive means mostly above about 56%. This is one part of the list.

The compounds below were run on Wild type (assay: S. aureus survival, RN4220 and DeltatarO strains – OD600, teichoic acid synthesis inhibitors, primary screen (AID 463173)). Conditions: S. aureus RN4220 wild type/DeltatarO growth, OD600, 18 h, stronger effect = lower value, screened at 18.75 µg/mL (by protocol).

| SMILES | survival |
| --- | --- |
| CCOc1ccc(C(=O)NCc2nc(-c3ccc(Cl)cc3)no2)cc1OCC | inactive: 90% |
| CCN(Cc1ccccc1)S(=O)(=O)c1ccc(F)c(C(=O)Nc2cc(C)ccc2OC)c1 | inactive: 120% |
| Cc1cccc(NC(=O)C2CCN(S(=O)(=O)c3c(C)noc3/C=C/c3ccco3)CC2)c1 | inactive: 69% |
| C=CCn1c(N)c(-c2nc3ccccc3[nH]2)sc1=S | inactive: 120% |
| O=C(NC1CC1)C1C2C=CC3(O2)C1C(=O)N(Cc1ccccc1)C3C(=O)NC1CCCC1 (stereo not given) | inactive: 103% |
| Fc1ccc(CNc2nc3c(-c4ccc(F)cc4)nnn3c3ccccc23)cc1 | inactive: 84% |
| COc1ccc(N(C)C(C)=O)cc1 | inactive: 89% |
| COc1cccc(/C=C/c2nc(C#N)c(N(C)Cc3ccccc3)o2)c1 | inactive: 79% |
| COc1ccc(-c2noc(CSCC(=O)Nc3ccc(C)cc3Br)n2)cc1OC | inactive: 72% |
| COCCCNC(=O)CN1C(=O)c2c(c3ccccc3n2C)C1c1ccc(OC)cc1 (stereo not given) | inactive: 84% |
| CCCCSc1ncnc2c1sc1nc(N3CCOCC3)c3c(c12)CCCC3 | inactive: 73% |
| COc1cc(C(=O)NCc2ccc3c(c2)CCN3C(=O)c2ccncc2)cc(OC)c1OC | inactive: 73% |
| Cc1ccc(NC(=O)NCCc2c(C)nn(C)c2C)c(Cl)c1 | inactive: 71% |
| CC1=C(C(=O)Nc2ccc(C)cc2)C(c2ccccc2Cl)n2nnnc2N1 (stereo not given) | inactive: 146% |
| CCOc1ccc(CNC(=O)COc2cc(=O)n(C)c3ccccc23)cc1 | inactive: 71% |
| CC(C)(C)c1cn2ccc3ccccc3c2n1 | inactive: 113% |
| Cc1ccc(NC(=O)c2cc(-c3ccc4c(c3)OCO4)on2)cc1 | inactive: 105% |
| Cc1cccc2c1-c1sc(C(=O)NCc3ccccc3Cl)cc1CO2 | inactive: 92% |
| CCCN1CCN(CCCNC(=O)Cn2nc(C)n3c(cc4cc(F)ccc43)c2=O)CC1 | inactive: 80% |
| COc1cc(NC(=O)c2ccc(C(=O)Nc3cc(OC)c(Cl)cc3OC)cc2)c(OC)cc1Cl | inactive: 65% |
| CCN(CC)C(=O)COc1ccc2ccc(=O)oc2c1 | inactive: 110% |
| CCC(=O)N1CCc2cc(Br)cc(S(=O)(=O)CCC(=O)NCc3ccccc3)c21 | inactive: 85% |
| COc1cccc(NC(=O)c2cc(CN3CCOCC3)on2)c1 | inactive: 79% |

| SMILES | survival |
| --- | --- |
| CSc1cccc(NC(=O)CN(C)S(=O)(=O)c2ccc3c(c2)n(C)c(=O)c(=O)n3C)c1 | inactive: 71% |
| Cc1nn2c(=O)cc(COC(=O)c3ccc(C(C)(C)C)cc3)nc2s1 | inactive: 83% |
| COc1ccccc1CNC(=O)c1c2c(nc3ccccc13)C(=O)N(C1CCCCC1)C2 | inactive: 124% |
| O=c1ccc2cc(S(=O)(=O)N3CCCC3)ccc2[nH]1 | inactive: 75% |
| Cc1cccc(C(=O)N2CCC(C)CC2)c1 | inactive: 104% |
| O=C(NCCN1CCOCC1)N1CCNC1=O | inactive: 110% |
| N#CC(C#N)=C1c2ccccc2-c2c1nc1ccccc1[n+]2[O-] | inactive: 117% |
| O=C(Nc1c(C(=O)N2CCN(c3ccc(F)cc3)CC2)oc2ccccc12)c1ccco1 | inactive: 88% |
| COc1ccc(NC(=O)c2c(C)oc3ccc(O)c(CN4CCN(C)CC4)c23)cc1Cl | inactive: 88% |
| Cc1ccc(-c2nnc(Nc3ccc(C(N)=O)cc3)c3ccccc23)cc1S(=O)(=O)N1CCCCC1 | inactive: 139% |
| COc1cccc(N2CCN(S(=O)(=O)c3ccc(-c4cnc(C5CC5)o4)cc3)CC2)c1 | inactive: 85% |
| CCOC(=O)C1CCCN(CCC(=O)Nc2ccc(OC)cc2OC)C1 (stereo not given) | inactive: 136% |
| COc1ccc(CCNC(=O)c2ccc(CS(=O)(=O)c3ccc(C)cc3)o2)cc1OC | inactive: 80% |
| CCCc1nn2c(=O)cc(COC(=O)c3ccc(NC(=O)c4cccs4)cc3)nc2s1 | inactive: 88% |
| CCc1ccc(NC(=O)CSC2=Nc3ccccc3C3=NC(CCC(=O)NCc4cccs4)C(=O)N23)cc1 (stereo not given) | inactive: 45% |
| O=C(CSc1nc2ccccc2n1Cc1ccc(F)c(Cl)c1)N1CCN(c2ccc(F)cc2)CC1 | inactive: 68% |
| Cc1cccc(-n2ccnc2SCC(=O)Nc2ccccc2C(F)(F)F)c1 | inactive: 66% |
| COc1ccc(CNC(=O)CCc2c(C)nc3c(c2C)c(=O)n(C)c(=O)n3C)cc1 | inactive: 120% |
| CCn1cc(C(=O)NCCc2ccccc2)c(=O)c2cc(S(=O)(=O)N3CCOCC3)ccc21 | inactive: 85% |
| O=C(/C=C\c1ccco1)Oc1cccc2cccnc12 | active: 1% |
| O=C(NC1CCCC1)c1cc2ccccc2oc1=O | inactive: 114% |
| O=C(NC1CCCCCC1)C1CCCO1 (stereo not given) | inactive: 95% |
| Cc1ccc(Cn2c(C)c(CNC3CCCCC3)c(C(=O)O)c2C)cc1 | inactive: 102% |

| SMILES | survival |
| --- | --- |
| CCC(=O)N1CCc2cc(S(=O)(=O)NC(C(=O)NCc3ccc(OC)cc3)C(C)C)ccc21 (stereo not given) | inactive: 86% |
| Cc1ccccc1-n1c(SCC(=O)N(C(C)C)C(C)C)nnc1-c1cccnc1 | inactive: 106% |
| COc1cc(CN2CCc3nc(Nc4ccc5c(c4)OCCO5)ncc3C2)cc(OC)c1OC | inactive: 77% |
| COC(=O)c1ccc(NC(=O)c2nn(C)c3c2CS(=O)(=O)c2ccccc2-3)cc1 | inactive: 84% |
| CCOC(=O)c1cc2c(=O)n3ccccc3nc2n(Cc2ccco2)c1=NC(=O)c1cc(C)cc(C)c1 | inactive: 55% |
| CCc1ccccc1NC(=O)CC(c1ccc(F)cc1)N1Cc2ccccc2C1=O (stereo not given) | inactive: 121% |
| COc1ccc(CCNc2nc3c(c(=O)n(C)c(=O)n3C)n2Cc2ccc(F)cc2)cc1OC | inactive: 82% |
| COc1cccc(N2C(=O)CSC23C(=O)N(CC(=O)Nc2cc(C)ccc2C)c2ccccc23)c1 (stereo not given) | inactive: 74% |
| COc1ccc(OC)c(CCNC(=O)CCCc2nnc3n(C)c(=O)c4sccc4n23)c1 | inactive: 87% |
| COc1ccc2[nH]cc(CCNC(=O)Nc3ccccc3C)c2c1 | inactive: 64% |
| CC1CCN(S(=O)(=O)c2ccc3nc(-c4cccnc4)cc(C(=O)NCCCOC(C)C)c3c2)CC1 | inactive: 84% |
| Cc1cc(C)c(NC(=O)c2sc3nc(C)cc(C)c3c2N)c(C)c1 | inactive: 73% |
| COc1ccc(C)cc1NC(=O)CN1CCN(CC(=O)Nc2ccccc2F)CC1 | inactive: 72% |
| Cc1ccc2sc(N3CCN(C(=O)C4COc5ccccc5O4)CC3)nc2c1C (stereo not given) | inactive: 148% |
| CCCS(=O)(=O)N1CCN(Cc2ccc(OC)c(OCC)c2)CC1 | inactive: 103% |
| Cc1ccc(Cl)cc1NC(=O)c1oc2ccc(S(=O)(=O)N3CCC4(CC3)OCCO4)cc2c1C | inactive: 80% |
| COc1ccc(NC(=O)Nc2cn(CC(C)C)c(=O)c3ccccc23)c(OC)c1 | inactive: 77% |
| O=C1C2=C(Nc3ccccc3SC2c2c(F)cccc2Cl)c2ccccc21 (stereo not given) | inactive: 85% |
| COc1ccc(-c2cc(-c3ccccc3)nc3c2COc2ccc(Cl)cc2-3)cc1 | inactive: 77% |
| O=C(NCCc1ccc(F)cc1)C(=O)NCC(c1cccs1)S(=O)(=O)c1cccs1 (stereo not given) | inactive: 126% |
| COC(=O)c1ccc(NS(=O)(=O)c2ccc3[nH]c4c(c3c2)CCCCC4)cc1 | inactive: 119% |
| Cc1oc2ncn(C)c(=O)c2c1C(=O)N(C)c1ccccc1F | inactive: 112% |
| CC(C)(C)OC(=O)N1CCC(c2c(C(=O)N3CCN(C4CCCCC4)CC3)cnn2-c2cccc(Cl)c2)CC1 | inactive: 72% |

| SMILES | survival |
| --- | --- |
| CCN1C(=O)C(O)(c2c(C)[nH]c3ccccc23)c2ccccc21 (stereo not given) | inactive: 67% |
| COc1ccc(NC(=O)CSC2=Nc3ccccc3C3=NC(CCC(=O)NCCc4ccccc4)C(=O)N23)cc1 (stereo not given) | inactive: 79% |
| CCOC(=O)N1CCC(NC(=O)c2cnn(-c3cccc(C)c3)c2-n2cccc2)CC1 | inactive: 80% |
| CC(=O)N1CCCc2cc(S(=O)(=O)N3CCC(C(=O)NC4CCCCC4)CC3)ccc21 | inactive: 110% |
| COc1ccc2cc(C#N)c(N3CCCN(C(=O)/C=C/C(=O)O)CC3)nc2c1 | inactive: 119% |
| Cc1ccc(C)c(NC(=O)C(C)N(c2ccccc2)S(C)(=O)=O)c1 (stereo not given) | inactive: 125% |
| Cc1oc2ncn(CC(C)C)c(=O)c2c1C(=O)Nc1ccc(Cl)cn1 | inactive: 68% |
| Cc1cccc(-n2cc(-c3ccccc3)nc2SCC(=O)Nc2ccccc2Cl)c1 | inactive: 115% |
| Cc1ccc(C)c(S(=O)(=O)NCC(c2ccc(N(C)C)cc2)N2CCOCC2)c1 (stereo not given) | inactive: 73% |
| O=C(NCc1ccccc1Cl)C1CCCN(c2nc3ccccc3n3cccc23)C1 (stereo not given) | inactive: 78% |
| CC(C)c1ccc(NS(=O)(=O)c2ccc3[nH]cc(C(=O)NC4CCCCC4)c(=O)c3c2)cc1 | inactive: 13% |
| CCOc1ccc(CNCCNC(=O)c2nonc2N)cc1 | inactive: 91% |
| CCC(C)C12CN(C(C)=O)CC(C)(CN(C(C)=O)C1)C2=O (stereo not given) | inactive: 113% |
| Cc1cccc(OCCn2nnc3sc4c(c3c2=O)CCCC4)c1 | inactive: 83% |
| CCOC(=O)c1sc(NC(=O)c2nc(SC)ncc2Cl)c(C(=O)OCC)c1C | inactive: 90% |
| CCOCc1nnc(NS(=O)(=O)c2ccc(Cl)cc2)s1 | inactive: 113% |
| COc1ccc(-n2c(-c3ccc(Cl)cc3)cc3c2CC(C)(C)CC3=O)c(OC)c1 | active: 3% |
| CC1=C(C(=O)Nc2ccc(C)cc2C)C(c2ccc(C(C)C)cc2)n2nc(C(F)(F)F)nc2N1 (stereo not given) | inactive: 82% |
| COc1ccc(CNC(=O)Cc2c(C)c3ccc(O)cc3oc2=O)cc1 | inactive: 84% |
| CCCC1CC(C)(/C(C)=N\NC(N)=S)OC1=O (stereo not given) | inactive: 113% |
| NNc1c(O)c(C(=O)O)cc2ccccc12 | inactive: 94% |
